Results: PubChem BioAssay AID485360 (National Center for Advancing Translational Sciences (NCATS), 2010)
The whole screen tested about 230,000 compounds, of which about 1,500 (0.65%) were called active. This list was built around the results that the source calls inconclusive (neither active nor inactive); the mix of calls is not that of the screen. Calls come from the whole dose curve; as a rule, active = well fitted inhibition curve with a large enough effect; inconclusive = small, poorly fitted or top-dose-only effect; inactive = no such curve, though single readings can be large or run the other way. Potencies beside an inconclusive call are fits to weak or partial responses and may not hold up.

Each molecule was assayed against Lethal(3)malignant brain tumor-like protein 1 (Homo sapiens) (UniProt Q9Y468) (assay: qHTS Assay for the Inhibitors of L3MBTL1). Settings: AlphaScreen L3MBTL1–H3K9me1 peptide binding; activity, negative = inhibition: at 57.1 µM (top of the series).
Outline: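 AlphaScreen proximity signal between nickel-chelate acceptor and streptavidin donor beads (final 10 ug/mL) reports binding of 50 nM L3MBTL1 to 75 nM biotin-H3 K9me1 peptide; complex incubated with compounds 30 min at room temperature; cefsulodin titration as control.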
% is set by controls: 0 for no effect and ±100 for the full control effect; potency is the fitted concentration of half-maximal effect; tags give direction and shape of the fitted curve.
Note: nearly all actives have a fitted effect of over 60% in size.

UniProt Q9Y468, sequence (Q9Y468 whole entry, looked up): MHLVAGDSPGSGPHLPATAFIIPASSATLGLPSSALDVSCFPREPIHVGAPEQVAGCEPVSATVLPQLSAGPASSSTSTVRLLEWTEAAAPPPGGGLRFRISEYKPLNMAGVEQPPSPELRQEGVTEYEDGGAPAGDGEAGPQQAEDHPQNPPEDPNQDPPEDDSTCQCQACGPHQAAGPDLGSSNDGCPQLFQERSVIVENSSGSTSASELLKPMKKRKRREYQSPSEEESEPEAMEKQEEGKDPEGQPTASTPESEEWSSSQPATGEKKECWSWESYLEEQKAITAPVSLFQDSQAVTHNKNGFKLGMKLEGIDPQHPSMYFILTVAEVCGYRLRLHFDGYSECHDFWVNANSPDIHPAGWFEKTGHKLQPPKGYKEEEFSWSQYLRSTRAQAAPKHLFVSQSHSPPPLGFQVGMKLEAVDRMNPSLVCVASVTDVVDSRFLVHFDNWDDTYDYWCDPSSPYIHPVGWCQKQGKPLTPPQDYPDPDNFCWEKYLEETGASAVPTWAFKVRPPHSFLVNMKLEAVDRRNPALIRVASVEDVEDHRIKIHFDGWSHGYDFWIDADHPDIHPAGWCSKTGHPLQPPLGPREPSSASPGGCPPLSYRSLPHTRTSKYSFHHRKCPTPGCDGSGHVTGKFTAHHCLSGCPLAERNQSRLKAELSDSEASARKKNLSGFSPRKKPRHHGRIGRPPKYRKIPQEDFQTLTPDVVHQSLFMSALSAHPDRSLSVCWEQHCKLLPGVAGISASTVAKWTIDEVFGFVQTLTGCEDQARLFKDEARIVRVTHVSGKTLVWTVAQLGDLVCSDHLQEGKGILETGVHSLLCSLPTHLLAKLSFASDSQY

SMILES	Potency	activity, negative = inhibition
c1ccc(-c2ccccc2OCCOCCN2CCOCC2)cc1	inconclusive: 31.6 µM [inhibitor, single point]	–
COC(=O)CSc1ccc(S(=O)(=O)N2CCC(C)CC2)cc1[N+](=O)[O-]	–	inactive: 3.03%
Cc1ccc(NC(=O)c2ccc(S(=O)(=O)N3CCCCCC3)cc2)nc1	inconclusive: 0.794 µM [inhibitor, single point]	–
Cc1ccc(C)c(NC(=O)CSc2nc(C)cc(C)c2C#N)c1	inconclusive: 28.2 µM [inhibitor, partial curve]	–
N#CC(C#N)=c1ccc2c(c1)NC1(CCCCC1)N=2	active: 28.2 µM	–
c1ccc(-c2nnc3n2N=C(c2ccc4c(c2)OCO4)CS3)nc1	inconclusive: 31.6 µM [inhibitor, single point]	–
O=C1CCC(c2ccccc2)N1C(=O)c1cccnc1 (centres undefined)	inconclusive: 7.08 µM [inhibitor, single point]	–
CCOc1cc(C(=O)NCc2ccc(C)cc2)ccc1OCC(=O)N1CCOCC1	–	inactive: 2.16%
CCOc1ccc(C(=O)N2CCCC2)cc1	inconclusive: 8.91 µM [inhibitor, full curve, poor fit]	–
Cc1ccc(-c2c(C#N)c(N)nc3c2CCCC3)o1	inconclusive: 0.282 µM [inhibitor, full curve]	–
CC(=O)NN1C(=O)/C(=C\c2ccc(Br)o2)SC1=S	inconclusive: 31.6 µM [inhibitor, single point]	–
Cc1cc(C(=O)OC(C(=O)Nc2cccc(C(F)(F)F)c2)c2ccccc2)c(C)o1 (centres undefined)	–	inactive: 11%
CCc1cccc(CC)c1NC(=O)CO/N=C(\C)c1cccs1	inconclusive: 39.8 µM [inhibitor, partial curve, poor fit]	–
CCOC(=O)c1c(-c2cccc(N)c2)cn2ccccc12	inconclusive: 28.2 µM [inhibitor, single point]	–
CCCC(c1nnnn1CCOC)N1CCN(C(=O)c2ccco2)CC1 (centres undefined)	–	inactive: 11.3%
O=C(O)Cc1ccc(NC(=S)NCc2ccco2)cc1	–	inactive: 5.14%
O=[N+]([O-])c1ccc(OCCOc2ccccc2/C=N/n2cnnc2)cc1	inconclusive: 39.8 µM [inhibitor, single point]	–
Cc1[nH]nc2nc(SCC(=O)NCC3CCCO3)n(-c3ccc(Br)cc3)c(=N)c12 (centres undefined)	–	inactive: 0.5%
COc1ccccc1/C(C)=N/NC(=S)NCc1ccccc1	inconclusive: 31.6 µM [inhibitor, single point]	–
CCn1c(NC(=O)c2ccc(C)cc2)c2ccccc2nc1=O	inconclusive: 0.708 µM [inhibitor, single point]	–
Cc1ccc(C(=O)c2c(NC(=O)c3ccncc3)sc3c2CCCC3)cc1	inconclusive: 12.6 µM [inhibitor, partial curve]	–
CN1C=CC=C/C1=C1/SC(=S)N(Cc2ccccc2)C1=O	inconclusive: 39.8 µM [inhibitor, single point]	–
COC(=O)C1=CN(C(C)C)C=C(C(=O)OC)C1c1cccc(OC)c1	–	inactive: 27.1%

SMILES	Potency	activity, negative = inhibition
C/C(=N\NC(=O)c1c[nH]c2ccccc12)c1ccccn1	active: 8.91 µM	–
Cc1cc(-c2ccc(N=Nc3c(S(=O)(=O)O)cc4cc(S(=O)(=O)O)cc(N)c4c3O)c(C)c2)ccc1N=Nc1c(S(=O)(=O)O)cc2cc(S(=O)(=O)O)cc(N)c2c1O	active: 0.199 µM	–
CCc1nnc(NS(=O)(=O)c2ccc(NC(=S)NC(=O)c3ccc(Br)cc3)cc2)s1	–	inactive: -5.19%
Cc1ccc(C(=O)NCc2ccccn2)cc1NC1=NC2CS(=O)(=O)CC2S1 (centres undefined)	–	inactive: 0.465%
Nc1nc(NCc2ccco2)nc(NC2CCCCC2)c1[N+](=O)[O-]	–	inactive: -2.8%
Cc1c(NC(=S)N/N=C/c2cc([N+](=O)[O-])ccc2O)c(=O)n(-c2ccccc2)n1C	active: 31.6 µM	–
O=C1/C(=C\c2ccc3ccccc3c2)CCCc2ccccc21	inconclusive: 7.08 µM [inhibitor, single point]	–
CC1(C)OC(=O)C(=Cc2ccc(-c3ccc(S(N)(=O)=O)cc3)o2)C(=O)O1	inconclusive: 25.1 µM [inhibitor, single point]	–
COc1ccc(CNc2ccc(C)c(C)c2)c(OC)c1OC	inconclusive: 28.2 µM [inhibitor, single point]	–
COc1ccc(OC)c(Nc2nc(N)nc(CSc3nnc(N)s3)n2)c1	inconclusive: 6.31 µM [inhibitor, single point]	–
CCN(CC)S(=O)(=O)c1ccc2[nH]c(=O)cc(C(=O)NCC(c3ccco3)N3CCCC3)c2c1 (centres undefined)	–	inactive: 1.19%
COc1ccccc1-c1noc(CCC(=O)Nc2ccccc2Cl)n1	inconclusive: 35.5 µM [inhibitor, single point]	–
c1ccc(-[n+]2nc(Nc3cccc4ccccc34)sc2-c2c3ccccc3cc3ccccc23)cc1	inconclusive: 7.94 µM [inhibitor, full curve]	–
N#Cc1nc(COc2ccc(Cl)cc2)oc1N1CCCCCC1	inconclusive: 17.8 µM [inhibitor, partial curve, poor fit]	–
O=C1NC(=S)N/C1=C/c1cccn1-c1ccc([N+](=O)[O-])cc1	inconclusive: 39.8 µM [inhibitor, single point]	–
Nc1ncnc2c1c(-c1ccc(Oc3ccccc3)cc1)cn2C1CCCC1	inconclusive: 15.8 µM [inhibitor, partial curve]	–
OCCN1CCOCCN(CCO)CCOCC1	–	inactive: 3.74%
COc1ccc(N2CCN(c3cc(C)c4ccccc4n3)CC2)cc1	inconclusive: 22.4 µM [inhibitor, single point]	–
COCCNC(=O)c1nc2ccccc2s1	–	inactive: 7.37%
O=C1C2CC=C(Cl)CC2C(=O)N1CN(Cc1ccco1)CN1C(=O)C2CC=C(Cl)CC2C1=O (centres undefined)	inconclusive: 31.6 µM [inhibitor, single point]	–
CC(C)=CCC/C(C)=C/CNC(=O)C[C@H]1C[C@H](C(=O)N2CCOCC2)[C@@]2(C)c3[nH]c4cc(CCC(=O)N(C)C)ccc4c3CCN2C1=O	inconclusive: 39.8 µM [inhibitor, single point]	–
COc1ccccc1-c1ccc(=O)n(CC(=O)NCc2cccs2)n1	inconclusive: 44.7 µM [inhibitor, partial curve, poor fit]	–
CCOC(=O)c1oc2c(O)c(O)ccc2c(=O)c1-c1nncn1-c1ccccc1	inconclusive: 2.82 µM [inhibitor, single point]	–

SMILES	Potency	activity, negative = inhibition
CCOC(=O)c1c(C)oc2c1c(C=NCCO)c(O)c1ccccc12	inconclusive: 25.1 µM [inhibitor, partial curve]	–
Cc1cc(C(=O)COC(=O)CC2Sc3ccccc3NC2=O)c(C)n1-c1cccc(C(F)(F)F)c1 (centres undefined)	inconclusive: 25.1 µM [inhibitor, partial curve]	–
O=c1[nH]c(SCc2ccc(Cl)cc2)nc2ccsc12	inconclusive: 39.8 µM [inhibitor, single point]	–
CCCS(=O)(=O)N1CCN(C(=O)c2cccs2)CC1	inconclusive: 39.8 µM [inhibitor, single point]	–
COc1ccc(CN2C(=O)c3cccnc3C2Nc2cc(Cl)c(OC)cc2OC)cc1 (centres undefined)	inconclusive: 35.5 µM [inhibitor, single point]	–
Cc1ccc(-c2ccc(=O)n(CCC(=O)NCc3ccccn3)n2)cc1	inconclusive: 6.31 µM [inhibitor, single point]	–
O=C1CC2(CCCC2)C(=O)N1CN1CCN(S(=O)(=O)c2ccc(Cl)c(Cl)c2)CC1	–	inactive: 0.584%
O=C(c1ccco1)N1CCN(c2nc(C(F)(F)F)nc3c2nnn3Cc2ccccc2)CC1	inconclusive: 6.31 µM [inhibitor, single point]	–
COc1cccc2sc(NNC(=O)COc3ccccc3)nc12	inconclusive: 0.794 µM [inhibitor, partial curve, poor fit]	–
COc1ccc(N2CCN(C(=O)c3ccc(SC)cc3OC)CC2)cc1	inconclusive: 39.8 µM [inhibitor, single point]	–
CN(C)c1ccc(NC(=O)CSc2nc3ccccc3c(=O)n2C2CCCCC2)cc1	inconclusive: 11.2 µM [inhibitor, partial curve]	–
Cn1c(-c2ccccc2)cnc1SCC(=O)N1CCCc2ccccc21	–	inactive: -7.47%
Cc1ccc(CSc2ccc3nnc(-c4ccccn4)n3n2)cc1	inconclusive: 15.8 µM [inhibitor, partial curve]	–
N#Cc1ccc(C(=O)N2CCN(S(=O)(=O)c3ccc(Br)s3)CC2)cc1	inconclusive: 0.251 µM [inhibitor, full curve, poor fit]	–
CCn1c(N2CCN(CC(=O)c3ccc(OC)cc3)CC2)nc2ccccc21	–	inactive: -0.247%
CCN1C(=O)/C(=C\C=C2/C=CC=CN2CC)SC1=S	inconclusive: 20 µM [inhibitor, single point]	–
O=C(O)c1ccc(N/N=C/c2cc3c(cc2[N+](=O)[O-])OCO3)cc1	inconclusive: 28.2 µM [inhibitor, single point]	–
CC(=O)C(/C=N/c1cc(-c2ccc(C)cc2)nn1-c1ccccc1)=C(\C)O	–	inactive: -9.07%
CCOc1ccccc1Oc1coc2cc(OCC(=O)O)ccc2c1=O	inconclusive: 28.2 µM [inhibitor, single point]	–
CCC(C)Sc1nc2c(cnn2-c2ccc(C)c(C)c2)c(=O)[nH]1 (centres undefined)	–	inactive: -3.68%
NNC(=O)CCC(=O)Nc1ccccc1	inconclusive: 39.8 µM [inhibitor, single point]	–
CCn1cc(C(=O)Nc2cc(C)ccc2C)c(=O)c2ccc(C)nc21	inconclusive: 35.5 µM [inhibitor, single point]	–
Cc1ccc(S(=O)(=O)CCC(=O)Nc2sccc2C(N)=O)cc1	inconclusive: 39.8 µM [inhibitor, single point]	–
